In ChEMBL document CHEMBL1157539, “Thousands of chemical starting points for antimalarial lead identification” (Nature, 2010):
Over roughly 13,000 compounds, “IFI” has its median near 4; the highest 2% begin near 17. This is one part of the list.

Assay: GSK_TCMDC: Inhibition Frequency Index (IFI). The number of non-kinase HTS assays where a compound showed > 50 % inhibition, expressed as a percentage of the number of such assays in which the compound was tested (-0 is zero)
Assay type: functional

SMILES | IFI [%]
CCNc1cc(C)nc(Nc2ccc(NC(=O)c3cccs3)cc2)n1 | 9.62
COc1cccc(C=NNc2cc(C)nc3c(OC)cccc23)c1 | 2.84
C[C@H](NC(=O)[C@H](Cc1ccccc1)NC(=O)OC(C)(C)C)C(=O)N[C@@H](CC1CCCCC1)C(O)CN (stereo partly specified) | 2.22
COc1cccc(Nc2nc(C)cc(NCc3ccc(-c4c(C)noc4C)cc3)n2)c1 | 4.62
O=C(NCCCCN1CCN(c2ccc3c(c2)CCC3)CC1)c1ccc(NC(=O)c2ccc(Cl)cc2)cc1 | 2.59
CCOC(=O)N1CCN(CCCCNc2c3ccc(Cl)cc3nc3ccc(OC)cc23)CC1 | 5.3
O=C(Cc1cccs1)NC(CCCN1CCC(Oc2cccc(Cl)c2)CC1)c1ccc(Cl)c(Cl)c1 (stereo unspecified) | 7.04
O=C(NC1CCCCC1)N(Cc1cccc(-c2ccc(CNCCc3ccccc3)cc2)c1)C1CCN(Cc2ccccc2)CC1 | 7.97
CC(=O)Nc1ccc(CN2CCC(NC(=O)c3ccc(-c4cccc(F)c4)s3)CC2)cc1 | 1.75
c1ccc(CCNCc2ccc(-c3ccc(CNCc4ccc5c(c4)OCO5)cc3)nc2)cc1 | 6.57
COc1cc(-c2cc3cc(Cl)c(Cl)cc3[nH]2)ccc1C(=O)NC1CCN(Cc2ccccc2)CC1 | -0
Cc1cc(NCCCOc2ccc(Cl)cc2)nc(NCc2ccccc2)n1 | 10
CC1CN(Cc2ccc(-c3ccc(-c4nc5ccccc5[nH]4)cc3)cc2)CC(C)O1 (stereo unspecified) | 6.94
COc1ccc(CNc2nc(NCc3ccccc3)c3cc(OC)c(OC)cc3n2)cc1OC | 7.14
CCN1C(=O)C(CC(=O)Nc2cccc(Cl)c2)N(Cc2ccc(OC)c(OC)c2)C1=S (stereo unspecified) | 0
N#Cc1ccc(/C=C/C(=O)NCCCCCN2CCN(C(=O)Nc3ccc(Cl)c(C(F)(F)F)c3)CC2)cc1 | 9.8
Cc1cccc2nc(-c3ccc(-c4cccc(CN5CCN(c6ccc(C#N)cn6)CC5)c4)s3)[nH]c12 | 6.86
CCOc1cc(C(=O)NCc2cc(Cl)cc(Cl)c2)ccc1-c1nc2cc(Cl)ccc2[nH]1 | 1.53
CCCCOP(=O)(OCCCC)C(=Cc1ccc(O)c2ccccc12)P(=O)(OCCCC)OCCCC | 7.75
CCCN(c1ccc(C(F)(F)F)cc1[N+](=O)[O-])S(=O)(=O)C(c1ccccc1)c1ccc(C(F)(F)F)cc1[N+](=O)[O-] (stereo unspecified) | 0
COc1ccc(-c2nc3ccc(C)nc3nc2-c2ccc(OC)cc2)cc1 | -0
O=C(CCn1cncn1)N1CCCC(c2[nH]c3ccccc3c2-c2ccncc2)C1 (stereo unspecified) | 1.16
O=C1SC(S)=NC1=CNCCCCCCO | 4.44

SMILES | IFI [%]
Cc1cc(=NN=Cc2ccccc2)c2cc(F)ccc2[nH]1 | 2.99
O=C(c1cc(-c2ccccc2)n[nH]1)N1CCN(S(=O)(=O)c2ccc(Cl)s2)CC1 | -0
CCc1cc2c(=O)c(-c3nc(C)cs3)c([C@H](N)Cc3ccc(O)cc3)oc2cc1O | 2.11
Cc1cc(N)cc2nc(-c3ccc(N)cc3)[nH]c12 | 3.42
CC(C)Cn1c2ccccc2c2nc3nc(N)nc(N)c3nc21 | 4.41
NC(=O)C1CCN(Cc2ccc(-c3ccc(-c4nc5cc(C(F)(F)F)ccc5[nH]4)cc3)cc2)CC1 | 5.77
COc1ccccc1-c1nc2nc(N)nc(N)c2nc1-c1ccccc1OC | 0.7
O=C(NCc1cccnc1)C(c1cc2ccccc2o1)N1CCN(C(c2ccccc2)c2ccccc2)CC1 (stereo unspecified) | 3.47
Cc1cc(NCCCCCCN)nc(Nc2ccc(Cl)cc2)n1 | 2.92
COc1cc(Cc2cnc(N)nc2N)c2c(c1OC)OC(C)C=C2 (stereo unspecified) | 0.74
CN1CCC=C(C(=O)NCC(C)(C)c2nc(-c3ccc(Cl)c(O)c3)c(-c3ccncc3)[nH]2)C1 | 0
CN(C)Cc1cccc(-c2ccc(NC(=O)c3ccc4c(=O)n(Cc5ccoc5)cnc4c3)cc2)c1 | 5.71
Cc1ccccc1Cc1cccc(/N=C(\N)Nc2ccc(Cl)cc2)n1 | 31.2
Cc1cc(N2CCC(NS(=O)(=O)c3cccc4cccnc34)CC2)nc(Nc2cccc(C#N)c2)n1 | -0
CCc1ccc(CN2CCCCC(NC(=O)c3cc(-c4ccccc4F)cs3)C2)cc1 (stereo unspecified) | 3.64
CN1CCN(c2ccnc3ccc(NC(=O)N(C)c4ccc(Cl)c(Cl)c4)cc23)CC1 | 0.73
COc1ccc2oc(=O)c(C#N)c(O)c2c1 | -0
COc1ccc(C2CC(c3ccccc3)=NN2C(=O)c2ccc(Br)o2)cc1 (stereo unspecified) | 0.68
CCOC(=O)c1ccc(N=C2SC(=Cc3cc(Br)ccc3O)C(=O)N2C)cc1 | 3.38
CC1(C)N=C(N)N=C(NOCc2ccc(Cl)c(Cl)c2)N1 | 0
CC(C)(CNC(=O)[C@@H]1CCCN(CCOc2ccc(F)c(F)c2)C1)c1nc(-c2ccc(Cl)c(O)c2)c(-c2ccncc2)[nH]1 | 5.04
O=C(/C=C/c1ccc(Cl)c(Cl)c1)NCCCCCN1CCC(n2c(=O)[nH]c3ccccc32)CC1 | 7.41
COc1cccc(-c2ccc(NC(=O)C3CCCN(Cc4cccc(OC)c4O)C3)cc2)c1 (stereo unspecified) | 4.35

SMILES | IFI [%]
Cc1[nH]c(C)c(-c2ccc(Oc3cccc(Cl)c3)cc2)c(=O)c1Br | 8.21
O=C(/C=C/c1ccc(Cl)c(Cl)c1)NCCCCCN1CCC(NC(=S)Nc2ccc(F)cc2F)CC1 | 7.14
Cc1cc(NCCC(=O)NCc2cccc(F)c2)nc(NCCc2ccc(F)cc2)n1 | 0
COc1ccc(-c2cccc(NC(=O)c3ccc(C#N)cc3)c2)cc1CN1CCCC1 | 4.9
COc1ccc(CNCc2ccc(F)cc2)cc1-c1ccc(S(=O)(=O)NCCN2CCCC2)s1 | 10.3
COc1ccccc1-n1c(SCC(=O)c2ccc3c(c2)CC(=O)N3C)nnc1-c1cccs1 | 6.38
Cc1nc(C)c(-c2ccc(S(=O)(=O)c3ccc(Cl)cc3)cc2)c(O)c1Cl | 0.78
CCCCc1ccc(NC(=O)Nc2ccc3c(c2)CCNCC3)cc1 | 4.32
CC1CCCCN1CCCNC(=O)c1cccc(-c2cc3cc(Cl)c(Cl)cc3[nH]2)c1 (stereo unspecified) | 4.35
OC(CN1CCN(C2CCCCC2)CC1)Cn1c2ccccc2c2cc(Br)ccc21 (stereo unspecified) | 3.17
COCn1ccc2c3c(N)nc(N)nc3ccc21 | 1.4
CN(C)CCNCc1ccc(-c2ccc(-c3nc4ccccc4[nH]3)s2)cc1 | 3.96
CCc1ccccc1NC(=O)CN1CCN(c2ncnc3scc(-c4ccc(F)cc4)c23)CC1 | 1.85
Nc1oc2c(CN3CCCCCC3)c(O)ccc2c(=O)c1-c1nc2ccccc2s1 | 4.13
COc1c(C)[nH]c(C)c(-c2ccc(Oc3cccc(C(F)(F)F)c3)cc2)c1=O | 10.6
O=C(/C=C/c1ccc(Cl)c(Cl)c1)NC1CCC(CN2CCC(c3nc4ccccc4n3CCCO)CC2)CC1 (stereo unspecified) | 3.76
Oc1ccc(CCNCCCCCCNCCCc2ccc(Cl)cc2)cc1O | 6.57
CCCCC(NCC)c1ccc(OCCOc2ccc(C(CCCC)NCC)cc2)cc1 (stereo unspecified) | 8.82
CN1CCC(C(=O)Nc2cccc(-c3ccc(-c4nc5cc(C(F)(F)F)ccc5[nH]4)cc3)c2)CC1 | 8.55
CCCCCCc1cc(OC)c(OC)cc1C(C)Nc1ccnc2cc(Cl)ccc12 (stereo unspecified) | 4.23
COc1ccc(N2CCN(CCCCNC(=O)c3ccc(NC(=O)c4ccc(C(F)(F)F)cc4)cc3)CC2)c(OC)c1 | 1.77
CC(C)(CNC(=O)C1CCN(CCOc2ccc(Cl)cc2)CC1)c1nc(-c2ccc(Cl)c(O)c2)c(-c2ccncc2)[nH]1 | 8.22
COc1ccc(NC(=O)[C@H](Cc2ccccc2)Nc2cc(C)nc(NCC3CCCCC3)n2)cc1 | 7.14

SMILES | IFI [%]
CC(Oc1cc(-n2cnc3ccc(NC(=O)CCN4CCCCC4)cc32)sc1C(N)=O)c1ccccc1Cl (stereo unspecified) | 9.35
COc1ccc2nccc([C@@H](O)CN3CCC(NC(=O)c4cc5c(F)cc(F)cc5[nH]4)CC3)c2n1 | 5.26
Cc1cc(-c2ccc(CNCc3ccc(F)cc3)cc2)ccc1S(=O)(=O)NCCN1CCCC1 | 16.2
CC(C)NCC(O)Cn1c2ccc(Br)cc2c2cc(Br)ccc21 (stereo unspecified) | 10.6
Cc1nn(C2CCS(=O)(=O)C2)c(C)c1C1Nc2ccccc2C(=O)N1Cc1ccc2c(c1)OCO2 (stereo unspecified) | 0
CCCCN(CCCC)CCCN(CCCN(CCCC)CCCC)c1cc(C)nc(Nc2ccc3cc(Br)ccc3c2)n1 | 15.2
Cc1c(-c2ccc(C(=O)NC3CC(C)(C)NC(C)(C)C3)cc2)[nH]c2cc(Cl)c(Cl)cc12 | 16.7
CCCCCCN1CCC(NCc2cccc3ccccc23)CC1 | 5.44
Cc1cc(C(=O)CN2C(=O)NC3(CCOc4ccccc43)C2=O)c(C)n1Cc1ccco1 (stereo unspecified) | 1.41
Cc1ncc([N+](=O)[O-])n1CCOC(=O)NC(NCC1COc2ccccc2O1)C(Cl)(Cl)Cl (stereo unspecified) | 0
CCCc1ccc(-c2csc(NC(=O)c3ccc([N+](=O)[O-])o3)n2)cc1 | 8.24
COc1ccc2nccc([C@H](O)CN3CCC(NCc4ccc5c(c4C)OCCO5)CC3)c2n1 | 1.92
O=C(N[C@@H](CC1CCCCC1)C(=O)NCc1cccc(C(F)(F)F)c1)c1ccc(O)c(-c2ccc(Cl)c(Cl)c2)c1 | 2.94
Cc1nn(-c2ccccc2)c2sc(C(=O)N(CCCN(C)C)c3nc(-c4ccccc4)cs3)cc12 | 9.09
COc1ccc(Nc2nccc(-c3ccc4ccnc(NCCCCN)c4c3)n2)cc1 | 4.5
COc1ccc(CN2CCCN(Cc3ccc(C(=O)Nc4ccc(Cl)cc4)cc3)CC2)cc1 | 10.3
Cc1cc(=NN=Cc2ccc(F)cc2)c2cc(F)ccc2[nH]1 | 2.86
COc1ccc(CCNCCCCCNCCc2ccc(Cl)cc2)cc1OC | 3.57
C=CCc1cc(Cc2cnc(N)nc2N)cc(CCC)c1O | 2.17
COc1ccc(N2CCN(CCCCNC(=O)c3ccc(NC(=O)c4ccc(Cl)c(Cl)c4)cc3)CC2)c(OC)c1 | 5.31
N#CCCN1CCN(Cc2cccc(-c3ccc(-c4nc5cc(F)ccc5[nH]4)cc3)c2)CC1 | 5.63
O=C(Cn1c(CCc2cccc(F)c2F)nc(=O)c2ccccc21)N(CCCN1CCCC1)Cc1ccc(-c2ccc(C(F)(F)F)cc2)cc1 | 8.89
